The text below walks through data of the RNAGym collection of RNA variant scans (doi:10.7554/elife.90254).

First the molecules themselves.
B1: LINE1-full (parent)
chain: UACGUAGGUGGUUUUCCCCUGAUAGUGCUAAGGGGGCCUGGAAGUUUGGACUGGGCAGAGCUCAACACAGCGUGGCAAAGUGGCUGUGGCUAGACUGCCUCUCUGGAUUCCUCGUCACUCAGCAGGGCAUCUCUGAGAGAAAUGCC

The source gives no read counts; variants with many changes may rest on few reads.

Variants of B1 are the subject of this series. Nature of the series: self-cleavage, relative activity (ratio to wild type); higher = more cleavage; in vitro, sequencing; the parent is a self-cleaving ribozyme.
With U9C U96C G125U, the self-cleavage amounted to 0.03. The value for U9A A69G A124G was 0.32; that for U9C U20A U87A A124U A138G was 0.08. With U9C U29C U62A the figure was 0.14.

As to U9C U29A A59G A140G, the self-cleavage is 0.4.

Turning to U9C C51U C63A U102C, the self-cleavage came to 0.11.

As for U9A A77U U87A A138G, the self-cleavage was 0.1.

Turning to U9A G53U U130C A136G U143A, the self-cleavage worked out at 1.19. With U9C A24G A59G U73A the figure was 0.14; with U9C G58A A67G U104C A141G, 0.25. On to U9C U14C C66U, for which the self-cleavage came out at 0.15. Regarding U9C U12A G27A A57G A138G U143C, the self-cleavage turned out to be 1.1. With U9A U62C U115C the figure was 0; with U9C G21A A142G, 1.35.

U9C A22G U52C: the self-cleavage was determined as 0.84.

Take U9C A59G U62C C63A A140G: the self-cleavage stood at 0.38. With U9C U12C A30G the figure was 0.61. In the case of G10A A31U G88A, the self-cleavage was determined as 0.12. Regarding U9C U20C U130C A140U, the self-cleavage stood at 1.8. U9A U20C A140G: the self-cleavage stood at 0. With U9C C68U U96A U130C, the self-cleavage worked out at 0.

As to U9C U29C U39C A42G, the self-cleavage came out at 1.84. On to U9A U14C C113U, for which the self-cleavage came to 0.79. Regarding U9A U73C U85C, the self-cleavage turned out to be 0.35.

For U9C G25A A43G A57U U100C, the self-cleavage stood at 0.43. Regarding U9A U102C A129U, the self-cleavage came out at 1.31. For the variant U9C U13C U15A A22G A107G A142G, the self-cleavage is 0.

Turning to U9C U26C C116A, the self-cleavage worked out at 1.24. In the case of U9C G44A U143A, the self-cleavage worked out at 1.58. Consider U9A U85A A129G, for which the self-cleavage came to 0.03.

Turning to U9C G49A A92U, the self-cleavage stood at 0.5. With U9C U20C U100A U130C, the self-cleavage amounted to 1.62.

Consider U9C U20C C99G, for which the self-cleavage stood at 0.

Take U9A A65U A142G: the self-cleavage was determined as 0.14. With U9A U73C U112C A141C, the self-cleavage stood at 0.88.

As for U9C U26C A124G, the self-cleavage turned out to be 0.56. As for U9A U62C C76U, the self-cleavage stood at 0.03.

On to G10A A24G A50U A65G A140G, for which the self-cleavage amounted to 0.4. Take U9C G11A G34A C84U: the self-cleavage amounted to 0.37. The value for U9C U91C U96C U143C was 0; that for U9C U23C U104C U134A A138G was 0.44; that for U9C G34A U96C was 0.26. With U9A U15C U62C A65G C71U the figure was 0; with U9A G80A A138U, 1.65.

As for U9G G83C A117U, the self-cleavage amounted to 0.8.

Turning to U9C U12C A59G U87A A124U, the self-cleavage was 0.44. Turning to U9A U81C U85A, the self-cleavage is 0.03. Regarding U9A U14C U104C C113U, the self-cleavage was 2.43. With U9C U12A U47C G72A U87G A141G the figure was 0.61; with U9A A43G A124C, 0.3; with U9C U12C U134A, 1.13.

Regarding U9C U13A U143C, the self-cleavage stood at 1.15. In the case of U9C U12C U13A A42G A64G A142G, the self-cleavage was found to be 0.92. With U9A U52G U62C the figure was 0. With U9C U13C U23C A59G the figure was 0. For the variant U9C U15C G49U U130C, the self-cleavage turned out to be 1.21.

Regarding U9A U47A A79G, the self-cleavage came to 0.43. The value for U9C U46C A57G A69U was 0.23; that for U9A G105A A117U was 0.74; that for U9C U15C U115C was 0.

Consider U9A U15A U102C A107G, for which the self-cleavage was 0. The value for U9A A65U C113U was 0.17; that for U9C A43U G74A A77U U85C U104C was 0.18. The value for U9A U102C U109A A138G was 1.45. With U9C U29A G82U U85G U132C the figure was 0; with G10A A50G U132A, 1.2. U9C U45C U109C U132C U134A: the self-cleavage stood at 0.66.

Regarding U9C U26C U85C U102C U134A A140U, the self-cleavage turned out to be 0. With U9C A22C G49U the figure was 1.48.

On to U9C U23C U62C U132C A136G, for which the self-cleavage turned out to be 0. With U9G U39A A57G, the self-cleavage was 1.47. With U9C U15C A77G U87A U134G the figure was 0.16; with U9C U47A U81A U112C, 2. U9A A67U U91C: the self-cleavage was determined as 0.07. With U9C U14C U23A A78G U132C G135A the figure was 0.54. Consider U9A U45A U73C, for which the self-cleavage was found to be 0.6. With U9C G40A U87C U100C the figure was 0.74; with U9A U20C A42G U134C, 1.67; with U9A U39C U112C, 1.53. With G10A A57G U87A the figure was 0.13; with U9C U52A U62G U112C, 0; with U9A A79U U112A A117G G126A, 1.78.

Consider U9A A42G U102A A140G, for which the self-cleavage turned out to be 1.06. The value for U9C U13A A136U was 1.18.

In the case of U9A U47C U81A A140G A142G, the self-cleavage was found to be 1.93. In the case of U9C A78G U104A, the self-cleavage worked out at 1.33. With U9A A42U A77G U100C U102C U143A the figure was 0; with U9C U13G A65G U100A U132A A142G, 0; with G10A A31G U100C, 1.23. With U9A G82A U104A, the self-cleavage came to 0.94. Turning to U9A A67G C113U, the self-cleavage turned out to be 0.4. The value for U9A U47A U132C A142G was 0.81; that for U9C A22G U132C was 0.97. With U9A U15G U45A the figure was 0.94; with U9A A59G A65U U109C, 0.16; with U9C A42G A141G, 1.37. As to U9A U62G A107G, the self-cleavage is 0. The value for U9C U62C A142G was 0.13; that for U9C U29A A42G U45C was 1.07.

Consider U9C U12G U14C U96C C99U U134C, for which the self-cleavage was 0.21.

Consider U9A U26A U87C, for which the self-cleavage is 0.12. With U9A A64U A77U, the self-cleavage stood at 0.93. For U9C U15C A42G U112A, the self-cleavage came out at 1.31.

In the case of U9A A43G G60A A69G G105A, the self-cleavage was 0.09. With U9G G40A U73G the figure was 0.82. For the variant U9C A30G A94G, the self-cleavage came to 0.99. With U9C U119A A138G G144A the figure was 1.31; with U9G A67G U100C, 1.02; with U9C U85A C128U A140U, 0.12. Regarding U9A C19U C28A U29C U47A U115G U132G, the self-cleavage came out at 0.56. Consider U9C U14A A124G, for which the self-cleavage amounted to 0.56.

For U9C A43U U52A, the self-cleavage came out at 0.7. With U9A A64G A79U U115C the figure was 0.92; with U9C A64G U102A A107G C128U, 0.58. In the case of G10A A43G U62C, the self-cleavage was found to be 0. As for U9C U81A G88A, the self-cleavage is 0.09. With U9C U14C A129G A140G, the self-cleavage was 2.55.

In the case of U9C U52C C76U A79G U115C A141U, the self-cleavage came to 2.02.

Consider U9A U13C A65G G114A, for which the self-cleavage is 0.43. Regarding G10A A107G U134C A136G, the self-cleavage stood at 1.67.

For U9C U47A A124G, the self-cleavage stood at 0.33. Turning to U9C U115A A129U A140G, the self-cleavage worked out at 1.68. For U9A G35U A138G, the self-cleavage was 1.23. U9G A77U U109C A142G: the self-cleavage was 0. On to U9G C118A A124U, for which the self-cleavage is 0.57.

As to U9C U26C U87C A124U, the self-cleavage stood at 0.66.

In the case of U9C U45C A50G U100C, the self-cleavage is 1.53. In the case of U9C U13C U26A, the self-cleavage is 0.84.

Regarding U9A U13C U46C, the self-cleavage is 1.06. Turning to U9C A30G A69G U119A A140G, the self-cleavage was found to be 2.51.

As for U9C U14C A94G, the self-cleavage was 0.11. Consider U9A G34C A117G U119G, for which the self-cleavage worked out at 1.15. For U9A U12C U73A U130C A138U, the self-cleavage was found to be 0.98. With U9A U39A A42G the figure was 0.72; with U9C A22U G49A A65G U87A U109C U134A A138G U143A, 0.13; with U9A U13C A107G, 0.5. With U9C U14G A141G the figure was 1.2.

With U9C U15A A24U G35U A94G A121G, the self-cleavage worked out at 0.48. With G10A U12A U14C U52A the figure was 0.62. With U9C U45A U62C U87A the figure was 0.17. With U9C A50G U115C the figure was 1.46. Regarding U9C U102C U112C, the self-cleavage amounted to 0.84. In the case of U9A U29A A138G, the self-cleavage is 1.27. For U9A A57G A59G U115A, the self-cleavage is 0. With U9C A22G U26A C98U the figure was 0.31; with U9C U23C C66U U85C, 0.06; with U9A U115C U130C, 0. With U9C U115A U119A the figure was 1.65.

With U9G U91C G105A U130A, the self-cleavage is 0.24. With U9A A67U U87C A140G the figure was 0. The value for U9A U62C U73A A92G C101U A117U was 0.03; that for U9C U62C U85C was 0; that for U9C A107G A117U was 1.8. The value for U9A C116U A124G was 0.68; that for U9A G41U A42U was 0.85.

In the case of U9C A69U U134G, the self-cleavage is 0.2.

As for U9C A79G U100C, the self-cleavage was determined as 1.79. Turning to U9C G11A U45A A136U, the self-cleavage was found to be 1.23. The value for U9A U13C A140G was 0.56.

In the case of U9C A79G C95U, the self-cleavage is 0.34.

For U9C U62C C76U A94G, the self-cleavage was found to be 0.07. Turning to U9A G25A A69G, the self-cleavage was 0. The value for U9C U26C C28A U96A U119C A140G was 0.35; that for U9C G21A A43G A78U C90U was 0.13; that for U9G A92G G114C was 0.18. With U9A U39C U46A A65U U104G U112C the figure was 0.12; with U9C U62C U87C, 0.
